Assay results reported in paper PMC4336329 (PLoS ONE, 2015).
Out of some 310,000 compounds screened, about 2,200 (0.71%) showed an effect of 50% or more. The effect is printed as a negative number. The list shows a part of the results.

target: human ether-à-go-go-related gene (hERG) potassium channel (human, UniProt Q12809); assay: primary screen, population patch clamp on CHO cells stably expressing hERG
Sequence (Q12809 whole entry, looked up): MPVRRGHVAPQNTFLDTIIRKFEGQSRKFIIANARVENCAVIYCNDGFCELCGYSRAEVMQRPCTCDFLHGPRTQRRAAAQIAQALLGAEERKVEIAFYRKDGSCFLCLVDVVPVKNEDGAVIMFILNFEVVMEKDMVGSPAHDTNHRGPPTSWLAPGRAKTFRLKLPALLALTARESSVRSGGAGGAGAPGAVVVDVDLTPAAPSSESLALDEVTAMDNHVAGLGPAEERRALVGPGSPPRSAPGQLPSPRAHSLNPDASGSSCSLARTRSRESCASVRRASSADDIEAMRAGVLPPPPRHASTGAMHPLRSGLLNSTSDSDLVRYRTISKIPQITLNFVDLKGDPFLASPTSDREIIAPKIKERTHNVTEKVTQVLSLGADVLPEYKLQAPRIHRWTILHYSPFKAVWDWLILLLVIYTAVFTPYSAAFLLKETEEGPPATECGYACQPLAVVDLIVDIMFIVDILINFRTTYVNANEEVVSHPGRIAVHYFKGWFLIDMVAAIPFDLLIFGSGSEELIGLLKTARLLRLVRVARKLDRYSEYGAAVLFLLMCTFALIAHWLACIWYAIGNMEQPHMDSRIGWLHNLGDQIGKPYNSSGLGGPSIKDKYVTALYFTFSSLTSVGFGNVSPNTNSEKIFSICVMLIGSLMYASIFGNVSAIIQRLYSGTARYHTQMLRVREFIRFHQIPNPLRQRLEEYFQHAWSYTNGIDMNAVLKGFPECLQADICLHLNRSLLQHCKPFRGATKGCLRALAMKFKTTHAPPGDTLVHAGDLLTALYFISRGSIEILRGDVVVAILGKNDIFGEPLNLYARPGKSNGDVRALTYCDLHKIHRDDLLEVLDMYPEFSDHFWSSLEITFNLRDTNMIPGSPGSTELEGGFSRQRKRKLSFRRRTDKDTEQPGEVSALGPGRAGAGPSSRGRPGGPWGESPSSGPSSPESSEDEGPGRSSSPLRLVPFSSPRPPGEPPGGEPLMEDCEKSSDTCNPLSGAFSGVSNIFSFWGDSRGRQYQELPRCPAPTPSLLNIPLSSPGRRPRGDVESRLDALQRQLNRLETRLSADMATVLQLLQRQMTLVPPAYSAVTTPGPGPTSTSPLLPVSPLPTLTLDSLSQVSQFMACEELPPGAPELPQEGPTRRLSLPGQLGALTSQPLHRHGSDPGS

Row | SMILES | hERG current change (%, negative = inhibition) at 1uM
1 | C=CCn1c(SCC(=O)NC2CCCC2)nc2sc(C)cc2c1=O | -3.24%
2 | COC(=O)c1sccc1NC(=O)Nc1cccc(C(C)=O)c1 | 10.8%
3 | CCC1CCC/C1=N\NC(=O)c1ccc(Cl)cc1 (centres unmarked) | 1.17%
4 | CC/C(=N\Nc1cccc2ccccc12)c1c(O)[nH]c(=O)[nH]c1=O | 10.9%
5 | FC(F)(F)c1cccc(Cc2noc(CN3CCC(N4CCCCC4)CC3)n2)c1 | -26.3%
6 | O=C(COc1ccc(S(=O)(=O)NC2CCCC2)cc1)NCC1CCCO1 (centres unmarked) | 11.5%
7 | COc1ccccc1CN1CCNC(=O)C1CC(=O)NCCC1=CCCCC1 (centres unmarked) | 11.8%
8 | NC(=O)NC(=O)COC(=O)CCCCCNS(=O)(=O)c1ccc2c(c1)OCCO2 | 5.49%
9 | COc1ccccc1N1CCN(C2CCCN(Cc3ccc(Cl)cc3)C2)CC1 (centres unmarked) | -13.4%
10 | CCSc1c([N+](=O)[O-])c(=O)n(-c2ccccc2)c2ccccc12 | 4.74%
11 | O=c1cnc2cc([N+](=O)[O-])ccc2[nH]1 | 10.1%
12 | Cc1ccc(-n2nc3c(c2NC(=O)c2ccco2)CS(=O)(=O)C3)cc1C | -2.67%
13 | Clc1cccc(CN2CCN(Cc3ccco3)CC2)c1.O=C(O)C(=O)O | 8.19%
14 | Cc1occc1C(=O)N1CCC2(CCCN(Cc3ccc(F)c(F)c3)C2)C1 (centres unmarked) | 0.808%
15 | Cc1ccc(NC(=O)C(c2ccc(Cl)cc2)N2CCOCC2)cc1 (centres unmarked) | 16.1%
16 | COc1cccc(C2CC(=O)Nc3cc(OC)c(OC)c(OC)c32)c1OC (centres unmarked) | -4.5%
17 | Nc1ncnc(Nc2ccccc2)n1 | 1.57%
18 | CC(=O)Nc1cccc(NC(=O)CSc2nnnn2C(C)C)c1 | 9.3%
19 | C#CCOC(=O)c1ccccc1C(=O)OCC#C | 6.37%

Row | SMILES | hERG current change (%, negative = inhibition) at 1uM
20 | O=C(c1cc(-c2ccccc2Cl)nc2ccc(Br)cc12)N1CCN(c2ccccn2)CC1 | 6.28%
21 | Cn1cc(S(=O)(=O)NC2CCCC2)c(=O)n(C)c1=O | 1.88%
22 | COc1ccc(N(C(=O)c2ccco2)S(=O)(=O)c2cccc([N+](=O)[O-])c2)cc1 | 17.3%
23 | CCOC(=O)c1cccc(NC(=O)CSc2nncn2-c2ccccn2)c1 | 13.1%
24 | Cc1ccc(NC(=O)c2ccc3c(c2)C(=O)N(c2ccccc2C)C3=O)nc1 | 11.9%
25 | CCCOc1ccc(C(=O)N(CC(C)C)c2c(N)n(Cc3ccccc3)c(=O)[nH]c2=O)cc1 | -8.27%
26 | Cc1ccc(C)c(N(C(=O)CNC(=O)c2ccco2)C(C(=O)NC2CCCCC2)c2ccncc2)c1 (centres unmarked) | 7.2%
27 | COc1ccc(/C=C\C(=O)c2c(O)ccc3c(C)cc(=O)oc23)cc1 | 13.3%
28 | CN(C(=O)c1ccc(S(=O)(=O)N(C)C)cc1)c1ccc2ccccc2c1 | 17.4%
29 | CC(C)COc1ccc(-c2nn(-c3ccccc3)cc2/C=C2/SC(=S)N(CC(=O)O)C2=O)cc1 | 10.1%
30 | CCc1ccc(N2C(=O)C(Cl)=C(N3CCOCC3)C2=O)cc1 | 5.65%
31 | N#CC1=C(N)Oc2n[nH]c(-c3cccs3)c2C1C1CCCCC1 (centres unmarked) | 7.59%
32 | CCN(C(=O)COC(=O)CNC(=O)c1ccc(C)s1)c1ccccc1 | 13.5%
33 | COc1ccc(N2CCN(c3nc(Cl)nc(Nc4ccc(F)cc4)n3)CC2)cc1 | 1.64%
34 | O=S(=O)(c1ccc(S(=O)(=O)N2CCN(C/C=C/c3ccccc3)CC2)cc1)N1CCCC1 | 8.92%
35 | COc1cc(C2CC(=O)c3cnc(N)nc3C2)cc(OC)c1OC (centres unmarked) | 10.8%
36 | O=C(COC(=O)c1cn(-c2ccccc2)nc1-c1ccccc1)c1cccc([N+](=O)[O-])c1 | 17.4%
37 | CC(C)Oc1ccc(C(=O)/C(=C\c2cccs2)c2nc3ccccc3o2)cc1 | 20.7%
38 | O=C(CCNS(=O)(=O)c1ccccc1F)NC1CCCCCC1 | 5.57%

Row | SMILES | hERG current change (%, negative = inhibition) at 1uM
39 | CC(C)C[C@H](NC(=O)C1(c2ccccc2)CCN(C(=O)[C@H]2CSCN2C(=O)OC(C)(C)C)CC1)C(=O)O | -0.115%
40 | O=C(O)COc1ccccc1Cc1ccccc1 | -0.177%
41 | CCOC(=O)Cc1csc(/C(=N/O)C(N)=O)n1 | 18.4%
42 | CCN(CC)C(=O)CSc1nc2ccccc2c(=O)n1CC | 7.27%
43 | Cc1ccc(NC(=O)CSc2nc3c(cc2C#N)C(=O)CCC3)cc1S(=O)(=O)N(C)C | -1.53%
44 | CCOC(=O)c1c(C)[nH]c(C)c1C(=O)CSc1nc2ccccc2n1CC | 8.89%
45 | O=C(Nc1ccccc1)C12CC3CC(C1)CC(n1cnc([N+](=O)[O-])n1)(C3)C2 | -38.3%
46 | CC(=O)NC1(C(=O)O)CCCC1 | 11.2%
47 | O=C(O)c1cc(Nc2cc(Cl)c3nonc3c2[N+](=O)[O-])ccc1O | 7.28%
48 | NC(=O)C(Cc1ccccc1)N1C(=O)c2ccccc2C1=O (centres unmarked) | 9.77%
49 | O=C(N=C1SC2CS(=O)(=O)CC2N1Cc1ccccc1)C1CCCO1 (centres unmarked) | 10.6%
50 | CCN(CC(=O)NCc1ccc(F)cc1)C(=O)c1cccnc1SC | -0.931%
51 | COc1ccc(OC)c(CNC(=O)Cc2c(C(=O)O)[nH]c3ccc(Cl)cc23)c1 | 16.7%
52 | CC(C)(C)c1ccc(C(=O)c2c[nH]c(C(=O)NCCc3ccccn3)c2)cc1 | 11.4%
53 | COC(=O)CCCNC(=O)c1ccccn1 | 3.16%
54 | CCOC(=O)c1c(CC(C)C)csc1/N=C/C1=C(O)CCCC1=O | 7.6%
55 | Cc1ccccc1NC(=O)/C=C/c1ccc([N+](=O)[O-])s1 | 4.03%
56 | O=C(CCS(=O)(=O)c1ccc(Br)cc1)N1CCN(c2ccc(F)cc2)CC1 | -12.6%
